# Test results from the supplement of paper PMC11417369.
# This is one part of the list.
# Test system: PF3D7_0420300 AP2 domain 1 (GST-tagged)
# Assay: gcPBM binding intensity (ln(normalized median fluorescence intensity)); higher = stronger DNA binding
# Procedure, shortened: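 The binding buffer was 1× PBS containing 1% milk, 0.2 mg/ml BSA, 0.5% salmon testes DNA and 0.03% Triton X-100. In it, GST-tagged P. falciparum DNA-binding domains expressed in E. coli were applied for 1 h to an Agilent 4 × 180k array of primer-extended double-stranded 36-bp intergenic genomic probes plus negative controls. Binding intensity, read with Alexa488 anti-GST antibody and a 488 nm scan, is the highest Masliner-normalised natural-log median intensity across replicate spots of either probe orientation.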
row,Sequence,gcPBM binding intensity (ln)
1,AGATCTATTATTTTTTGTACTTATATATAAACTTAA [XGTACX_site1737],9.29
2,ATAGGCAAAAAGTGTACACATTCATTTATATAAATA [CACACA_site4480],9.24
3,AATGGTATAAACAATACACACATAATATAAATATTG [CACACA_site6878],9.58
4,TTATATATAAATGTGTGTACTTATAAAATAATCATT [XGTACX_site5370],9.35
5,TTCTATATATTTGGAAGTACATTATATTTATTTTTT [XGTACX_site3172],9.3
6,TAAAATTTTTGTTTTTGTACGAAACATCAATTTTAC [XGTACX_site4963],9
7,CATATATAAATATGTACACACATATGTATGATCTCA [CACACA_site3868],9.44
8,TTATTTATAAGTAATATTATATATTCTTTTAATACA [CACACA_negctrl_site471],8.9
9,ACAAAATTTTTAAGAACACACAAAAATGTACTATCG [CACACA_site2550],9.3
10,GAAAGGACAAGAATAGTGCACATGCAATGTTATTTT [GTGCAC_site9985],9.41
11,AATCATGCTCCGGAAAGTACATAAATAAATAAATAA [XGTACX_site1690],9.14
12,CACATACACATACAAACACACATTATGTATATATAT [CACACA_site1599],9.67
13,AAAAAAAAAAAACATACACACATACATACATATATA [CACACA_site8222],9.82
14,ATATATACAACTAAAGAACACACATCATTGTTCATT [CACACA_site9224],9.64
15,AAACAATTTTTTAAAAGTACTTGAAAATTGTGAAAT [XGTACX_site2461],9.17
16,AAAAAAATTACGCAAGTGCATATAATTTAACAAAAA,9.1
17,ATATATATATATCACGCACACACGAATTTTAAATAT [CACACA_site3131],9.65
18,AATGGTAATCCACATACACACACACCGACACATATA [CACACA_site8876],10.1
19,AACATTTATATAAAAGAACACACATATAAAATATTA [CACACA_site9199],9.55

row,Sequence,gcPBM binding intensity (ln)
1,ATCGCGAAGTAGCATTCACACACAGCAAAATATATA [CACACA_site9162],9.52
2,CATTTACCCTTATTAACACACAAAATAAAATACGCT [CACACA_site7249],9.45
3,AAATAACAAAAGAAGGTGCTCATAAAAATTCATACA [GTGCAC_site9864],9.37
4,AACAATAGTAAAAATACACACATTAAACTTCATTTC [CACACA_site2126],9.71
5,AAAAAAAAAAAAAAAAAAAAAAAAAAAAAAAAAAAA [CACACA_negctrl_site204],9.43
6,ATACAATGATATATACATATATATATATATATATAT [TGCATGCA_negctrl_site359],9.46
7,AAATTATAAAAAAAAAAAAAAAAAAAAAAAAAAAAA [XGTACX_negctrl_site501],8.54
8,TTTAAAATATTAAAATGTACATATATATATATATAT [XGTACX_site6784],8.96
9,ATCCGCTGCCTTTTGGTGCAGAACATAATCATGTAA,9.02
10,TATATATATATATATACACACATACATATATATATT [CACACA_site8185],9.29
11,ACATAAATATATTTTTCACACATCCTTAGTTATGAA [CACACA_site5179],9.23
12,AATGTATTTAAACTGACACACAAAAAAAATAAAATA [CACACA_site2138],9.53
13,ATATTGTAAGTAAACACACACACATCTATAGGTATA [CACACA_site6462],9.96
14,TGTATATTTGATTCATGTACATATTTTATTTTAACT [XGTACX_site5169],9.48
15,CAGATTTATTCAAACGCATGCTGTTTTAAAATAAAA [TGCATGCA_site874],8.66
16,CCTATATAATTATAATGTACTTGTAAAAAATATAAC [XGTACX_site2864],9.36
17,TAAGACTATTAAAAAATTGAGTACATGAACTGTTCA [GTGCAC_negctrl_site670],9.02
18,AAATATAAAAAATATACACACATATATAATATATAT [CACACA_site2963],9.55
19,CGTATAACATATGACACACACACATACATACACAAA [CACACA_site1803],9.98

row,Sequence,gcPBM binding intensity (ln)
1,GATTTATATAATTCAAGTACTAAAAATATTTTTAAT [XGTACX_site5285],9.01
2,AAAAAAAATATCTATGCATGTAATATTATGATATTG [TGCATGCA_site546],9.14
3,TAACATTAAAATAAAAGTACTTAATAATATTAAGTA [XGTACX_site5920],9.16
4,TTAATAATAAATGAAAGTACATATAAAAAAAAAAAA [XGTACX_site717],9.28
5,ATTATACATATGTATGCACACATACATACACATATA [CACACA_site9155],9.47
6,AATAGTAAAAGATATACACACACCAAAAAATAGAAT [CACACA_site2289],10.3
7,TAATTTAAGAAAAAATGTACACAAATATAATAATAG [XGTACX_site8317],9.37
8,ATATATATATGTTTATGTACTTATAATAATATAACT [XGTACX_site4828],9.26
9,ATACATATATGTGTGTGTACATAAATGTATATATTT [XGTACX_site6242],9.82
10,GCATGGAACCATATATGTACATATATAAATAAATAA [XGTACX_site4996],9.1
11,AACTTTATTCCTAATTGTACACATATATATATATAT [XGTACX_site6823],9.5
12,GTATCTTTCAAAATATGTACATATATATATGTGTGT [XGTACX_site3512],9.74
13,TGTAGCCTGGAGAAGAGTACATAGTATCTGGTAGCT [XGTACX_site4943],9.12
14,CGTATGTGCGGACATGCATGCAATATACAAGAAAAA [TGCATGCA_site145],9.08
15,GTATATTAATAAACATGTACACAATTTATTTATATT [XGTACX_site1012],9.35
16,TTTTTTTTTTGAAGTGCATGTTACGATGAAAAAAAA [TGCATGCA_site64],8.82
17,TTTTTTTTTAAATGTTGTACATTATATTTGTGTATA [XGTACX_site8354],9.21
18,CTAAATAACTTAAGGTGTACGTTTCCAATAAAAAAA [XGTACX_site1742],9.02
19,ACATATAAAATGATGCGTACATATTTGATCATATAC [XGTACX_site153],9.28
